# Measured values reported in the RNAGym collection of RNA variant scans (doi:10.7554/elife.90254).
# Read counts are not given, so values of variants with three or more changes are uncertain.
# B1: OR4K15 (parent)
# chain: GUUAACGGUCAUAGGCCAUGGAAACUAGGAGCACCAUUUCGCUGCCAGUGAAGAAAUGAACAAAGAAAAUCUGGGCCAGGCAGGCAUCAAAAGAAAUAGUCUUGCGCUCAACCAGAAAGUCUGUAAUCAUUUUAAGGGUA
# Variants of: B1
# Assay: self-cleavage, relative activity (ratio to wild type); higher = more cleavage; in vitro, sequencing; the parent is a self-cleaving ribozyme
row,Variant,self-cleavage
1,U9G A23G U87C A118G,0.33
2,A63G A64G A68G U102C,1.82
3,C61U A68G U139C,0.72
4,U3G U70C A92U,0.68
5,U2C A89G A111G,0.07
6,U37C A56G C113A,0.01
7,A55G A56G A64G U87A U133A,0.88
8,A64G U97C U102C U103C,0.14
9,A23U G29U A52G A55G A78G A125G,0.08
10,A18U A22G U133C,1.29
11,A90G A94G U108G,0.02
12,U38C A78U A86U U100C,1.45
13,A5G A11G U38A,0.58
14,A24G A30G U43A,0.74
15,G29C A54G A59G A89G,0.95
16,C17A U19A C40U,1.59
17,U39C A63G A117G,1.59
18,C40U G53C G93A,1.61
19,A94G A118G U131C,0.44
20,A36G G44A A92G,0.81
21,U9C U39C U87C,1.59
22,A11G A30G U57C A126U,0.94
23,A68G G80U U102C A110G,0.02
24,U9C U19C U37C A62G U100C,1.69

row,Variant,self-cleavage
1,U72G U120C A140U,0.07
2,C17U U57C A111G,0.03
3,U70C U87C U139C,1.02
4,U38A A52G A55G A69C U87C U120C,0.24
5,U9C A62G A68G,1.24
6,U37C C45A A51G A95G A117G,1.33
7,A24G A78G A89U A140G,0.31
8,A52G A59G U127C,1.51
9,A11G A22U U127C,0.92
10,G48U A90G U102C A110G,0.13
11,A33G A91G A129U,0.34
12,C25A U49C A52G A89U U139C,1.34
13,A33G U122A A129G,0.62
14,C46U A64G A82G A89G,0.85
15,U39C A51G A67G A68C A94U,1.11
16,C32U U43A G79A A86G,0.14
17,U72A U87A U97C,0.16
18,A22G U43C A63G A116G A118G U131C,0.07
19,A27U A63G U87C U102C A118G A140U,2.58
20,A5G C77U A116G,0.9
21,A18G A63G U120C U127C,0.69
22,A110G G123A U124C,0.16
23,U49C U102C U103C,0.06
24,U3C U12C U43C U57C A82G G83C,0.15

row,Variant,self-cleavage
1,A24G A59G U122C A134G A140U,0.86
2,U2C U43A A126G,0.93
3,U26C U39C A47G A90G A91G A95G U120C,0.49
4,A30U A59U A67G,1.85
5,C6G A86G U108C,0.14
6,U26C A111U A126U,0.08
7,A13U A111G U127A,0.03
8,U12A A33G A94G,1.55
9,U43C U100C G115U,0.13
10,C16U G31A U43A A56G U57C U97C A126U A129G U139C,0.57
11,A5G A60G A117G,1.23
12,A5G A86G A116G,0.41
13,A51G A98G U127A U132C,0.9
14,A90U A96G U120C,1.16
15,A24C U131C A140G,1.28
16,A27U A36G U87A A96G,1.64
17,U26C U87C U130C U131C,0.71
18,U9C C46U A95G A116U,0.51
19,A54G A55G A91G A95G,0.88
20,U9C A47U U108C A118G,0
21,A51G A89U A129G,1.59
22,A110G U130C U131C,0.04
23,U72C U102C A118G A126U,0.19
24,U12A U57C A114C,0

row,Variant,self-cleavage
1,U43A A54U A66U U97A U103C,0.07
2,A22U A66G G74A U131C,0.2
3,G79A A117G C128U,0.13
4,A30G A69G A126G U131C A135G,1.18
5,A62G A67G U72A A117U,0.17
6,A33G A55G A94U U132C,1.07
7,A30G A67G A91G U97C A117G A118C,0.03
8,A96G U100C A116G A129G,0.5
9,U49C A68G U70C A92G A94G U124G,0.12
10,U2C A22U A69G U72A U131C,0.04
11,U39C C40G G65A A82U A94G U124A,0.11
12,A5G U19A U39G A59G,1.1
13,A55G A91G A95G U124C C128U,0.87
14,C35U A64G G84U,0.25
15,A18U A95C U132C,0.55
16,A11G U38C A94G A116U,0.22
17,A63G A68G U122C,0.71
18,A23G A66G A96G U100C,2.24
19,A47G A82G A118G U132C,0.09
20,U39A G50C A51G U102C,1.25
21,A5G A86U U122C,0.88
22,A54G A55G A56G A89U U130C,0.78
23,U2C A5G A135G,0.69
24,A11G U49G A69G A110U,1.13

row,Variant,self-cleavage
1,C61A A116U A129G,0.1
2,A67U G75A A86G A96G,0.09
3,A24G A47G A78G U122C A134G,0.11
4,U37C A47U U57C U100C,0.72
5,U9C U57G A91G U108A A114U A118G,0.01
6,U72A A82G G84A U100C U132C,0.01
7,U102C A116G U130C,0.97
8,A62G U102C U120C,2.39
9,A24G A67C A94G A111U C112U,0.04
10,A23G A60U A96G U108C A110G,0.02
11,A52G A54G U102C A116U,0.18
12,A11U A22G A125U,1.74
13,U57G A126G U132C,0.14
14,A36U U43C A82G,1.11
15,A30U U49C A98G,0.36
16,A86G A90G U139C,1.23
17,A30U A114G A117G,0.32
18,A51U U130C A140U,1.4
19,U2A U124A U131C,0.43
20,A23U A51G A117U,0.54
21,A33G U87A C105U,0.13
22,U43A A52G A78G U87A,0.31
23,A62U A68G A95G A129U,1.52
24,U38A A63G A67G A92G,1.64

row,Variant,self-cleavage
1,A13G U49A A118U,0.53
2,U39A A86G U97C U108C,0.02
3,A24U A30U A59G U97G U122C,0.83
4,A67G C76U C88U A111G U131C,0
5,A22G U38A G65U A89G A110G,0.02
6,U49A A69G A92G,0.29
7,A52G A95U A117G,2.86
8,A52G A68G C113A U139A,0.05
9,A22G U37C C85U U127A,0.29
10,U49C A55G U102C A116G A129G,0.66
11,U37C A62C A69G A114G A116G U122C,0.01
12,A82U A95G A126G,0.14
13,A24G A52G A96G U132C,2.03
14,U43C A47U A91G U108C A135G,0
15,U2C A56G U108A,0.04
16,A27G A62G A86G U108C A111C,0.01
17,A13G U38C U43C A64G,1.62
18,A24G A67G A78G,0.09
19,A117G U120C U124A U132C,0.66
20,A23G A54G A118G U130C,0.5
21,U37C G74A C81U,0.18
22,U37C A94G U132C,1.73
23,C17U A111U A114U,0.02
24,A18G A55G A116G U130C,0.97

row,Variant,self-cleavage
1,A24G A59U A63U U108A,0.06
2,U12A A13G A36G G41A U49C A95G,1.37
3,G31U A69G A114U,0.02
4,G20A U49C A116G U124C,0.27
5,A30U A94G U122A,2.37
6,A27U A63G C77U,1.24
7,A22G A52U A117G,1.17
8,A27G A129G U131C A135U,0.19
9,U2A A5U A82C,0.43
10,A54G A56G U130C,2.03
11,C42U U43C A52G A98U A129G,0.98
12,A22G A52C A54U,0.88
13,U43C A55G A63U U124C,1.02
14,C34U A56U A111G U132C,0.02
15,A51G A55G A60G U70C A96C,0.24
16,A33U G50A U130C,1.17
17,U49A U57C U108C U131C,0.01
18,A22G A91U A96U,0.86
19,U43C A51G A56G U120C,0.73
20,A4U A90G A91G A118G,0.74
21,U38C A78G U122C U124C,0.08
22,G7U C77U U124C,0.86
23,U9C A51U G80C,0.14
